Measurements from publication PMC8948191.
Results are given in words; binding and its absence hold for the method and conditions named.

Molecular target: Purified recombinant Drp1 (isoform 1) (human), O00429
Test: pull-down; cell-free system, recombinant GST- or His-fusions purified from E. coli; two proteins only (CLUH with MiD49 or Mff without Drp1; CLUH with Drp1 as bait); both purified
Conditions: remark: other sources report otherwise

B1: Purified recombinant CLUH, O75153 1-1309 (protein)
chain: MLLNGDCPESLKKEAAAAEPPRENGLDEAGPGDETTGQEVIVIQDTGFSVKILAPGIEPFSLQVSPQEMVQEIHQVLMDREDTCHRTCFSLHLDGNVLDHFSELRSVEGLQEGSVLRVVEEPYTVREARIHVRHVRDLLKSLDPSDAFNGVDCNSLSFLSVFTDGDLGDSGKRKKGLEMDPIDCTPPEYILPGSRERPLCPLQPQNRDWKPLQCLKVLTMSGWNPPPGNRKMHGDLMYLFVITAEDRQVSITASTRGFYLNQSTAYHFNPKPASPRFLSHSLVELLNQISPTFKKNFAVLQKKRVQRHPFERIATPFQVYSWTAPQAEHAMDCVRAEDAYTSRLGYEEHIPGQTRDWNEELQTTRELPRKNLPERLLRERAIFKVHSDFTAAATRGAMAVIDGNVMAINPSEETKMQMFIWNNIFFSLGFDVRDHYKDFGGDVAAYVAPTNDLNGVRTYNAVDVEGLYTLGTVVVDYRGYRVTAQSIIPGILERDQEQSVIYGSIDFGKTVVSHPRYLELLERTSRPLKILRHQVLNDRDEEVELCSSVECKGIIGNDGRHYILDLLRTFPPDLNFLPVPGEELPEECARAGFPRAHRHKLCCLRQELVDAFVEHRYLLFMKLAALQLMQQNASQLETPSSLENGGPSSLESKSEDPPGQEAGSEEEGSSASGLAKVKELAETIAADDGTDPRSREVIRNACKAVGSISSTAFDIRFNPDIFSPGVRFPESCQDEVRDQKQLLKDAAAFLLSCQIPGLVKDCMEHAVLPVDGATLAEVMRQRGINMRYLGKVLELVLRSPARHQLDHVFKIGIGELITRSAKHIFKTYLQGVELSGLSAAISHFLNCFLSSYPNPVAHLPADELVSKKRNKRRKNRPPGAADNTAWAVMTPQELWKNICQEAKNYFDFDLECETVDQAVETYGLQKITLLREISLKTGIQVLLKEYSFDSRHKPAFTEEDVLNIFPVVKHVNPKASDAFHFFQSGQAKVQQGFLKEGCELINEALNLFNNVYGAMHVETCACLRLLARLHYIMGDYAEALSNQQKAVLMSERVMGTEHPNTIQEYMHLALYCFASSQLSTALSLLYRARYLMLLVFGEDHPEMALLDNNIGLVLHGVMEYDLSLRFLENALAVSTKYHGPKALKVALSHHLVARVYESKAEFRSALQHEKEGYTIYKTQLGEDHEKTKESSEYLKCLTQQAVALQRTMNEIYRNGSSANIPPLKFTAPSMASVLEQLNVINGILFIPLSQKDLENLKAEVARRHQLQEASRNRDRAEEPMATEPAPAGAPGDLGSQPPAAKDPSPSVQG
- binding: no binding
